# In PubChem BioAssay AID504706 (National Center for Advancing Translational Sciences (NCATS), 2011):
# Hit rate of the full screen: of about 320,000 compounds, about 200 (0.062%) were called active. The inconclusive results got no clear call from the source; some entries with a clear call stand among them for comparison. Calls follow the shape of the dose curve; as a rule, active = well fitted activation curve with a large enough effect; inconclusive = small, poorly fitted or top-dose-only effect; inactive = no such curve, though single readings can be large or run the other way. Potencies of inconclusive entries are left out as doubtful fits.
# Assay: qHTS assay for re-activators of p53 using a Luc reporter; also: nearly all actives have a fitted effect of over 45% in size; as to activity change, positive = activation: % of control where 0% means no effect
# Details: H1299 p53-A138V BP100-luciferase reporter, luminescence, 24 h; series mostly up to 92.2 µM; activity change, positive = activation: at the top concentration
# Outline: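 p53-null H1299 cells stably carrying temperature-sensitive p53-A138V and a BP100-luciferase reporter were pinned with compounds (4-point, 1:5 series) and held 24 hrs at 37 deg C. Luminescence was read 10 min after detection reagent.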
# Potency is read from the fitted curve at half-maximal effect; tags tell the direction and shape of the fitted curve.
SMILES,Potency,"activity change, positive = activation"
Cc1ccn2cc(-c3nonc3C)cc2c1,"inconclusive [activator, partial curve, poor fit]",–
CC(=O)Nc1ccc(S(=O)(=O)N2CCN(c3cc4c(cc3[N+](=O)[O-])n(C)c(=O)n4C)CC2)cc1,–,inactive: -4.59%
O=c1[nH]c2cc3c(cc2cc1CN(CC1CCCO1)S(=O)(=O)c1ccc(Cl)cc1)OCCO3 (stereo not drawn),"inconclusive [activator, single point]",–
Cc1ccc(F)cc1NC(=O)CCc1c(C)nn(-c2ccc(N3CCCCC3)nn2)c1C,"inconclusive [activator, partial curve, poor fit]",–
CC(C)OC(=O)/C(C#N)=C/c1c[nH]c2ccccc12,"inconclusive [activator, partial curve, poor fit]",–
Cc1ccccc1OCC(=O)Nc1nnc(C2CC2)s1,"inconclusive [activator, single point]",–
Cn1c(CN2CCCC2)nc2cc(NC(=O)Nc3ccccc3)ccc21,"inconclusive [activator, partial curve, poor fit]",–
COc1ccc(-c2c(=O)n(OCc3ccccn3)c3ccccc3[n+]2[O-])cc1OC,–,inactive: 4.9%
O=C(OCC(=O)c1ccc[nH]1)C1=COCCO1,"inconclusive [activator, partial curve, poor fit]",–
CC1(C)CC(=O)C(C=Nc2ccc(O)cc2)=C(O)C1,"inconclusive [activator, single point]",–
Fc1ccc(N2N=C(c3cccs3)CC2c2ccco2)c(F)c1 (stereo not drawn),"inconclusive [activator, single point]",–
COc1ccccc1NC(=S)NCCSc1ccc(C)cc1,–,inactive: 2.8%
CCS(=O)(=O)n1nc(-c2ccccc2)nc1SCc1ccccc1,"inconclusive [activator, partial curve, poor fit]",–
Clc1ccc2nc(CSc3nc4ccccc4o3)cn2c1,"inconclusive [activator, full curve, poor fit]",–
CCN(CC)S(=O)(=O)c1cc(NC(=O)CSc2nc3c(cc2C#N)C(=O)CC(C)(C)C3)ccc1C,–,inactive: 6.55%
O=C(NCCc1c[nH]c2ccccc12)c1ccc2c(c1)OCO2,"inconclusive [activator, full curve]",–
Cc1cccc(-c2nnc(SCc3nc4ccccc4[nH]3)n2Cc2ccco2)c1,–,inactive: -18.6%
Cc1ccc(C(=S)N2CCCCCC2)cc1,"inconclusive [activator, single point]",–
CC(=O)Cn1cnc2sc(-c3ccccc3)cc2c1=O,"inconclusive [activator, partial curve, poor fit]",–
Clc1nnc(NN=C2CCCC2)c2ccccc12,"inconclusive [activator, partial curve, poor fit]",–
c1ccc(-c2ccc(SCc3cccnc3)nn2)nc1,"inconclusive [activator, single point]",–
Cc1cc(C)c2c(N)c(C(=O)Nc3ccccc3Br)sc2n1,"inconclusive [activator, full curve, poor fit]",–
Cc1ccc([N+](=O)[O-])cc1-c1ccc(/C=N/NC(=O)CN2CCOCC2)o1,–,inactive: -2.5%

SMILES,Potency,"activity change, positive = activation"
Cc1cc(O)ccc1Nc1nc2ccccc2nc1Nc1ccc(O)cc1C,"inconclusive [activator, partial curve, poor fit]",–
CC1=C(C(=O)OCc2ccccc2)C(c2ccc3ccccc3c2)NC(=O)N1CCCC(=O)O (stereo not drawn),–,inactive: 0.749%
Cc1sc(N/N=C/c2ccco2)nc1-c1ccccc1,"inconclusive [activator, partial curve, poor fit]",–
Oc1ccccc1/C=N/Nc1ccccc1,"inconclusive [activator, partial curve, poor fit]",–
COc1cc(CN2CCN(C3CCC3)CC2CCO)cc(OC)c1 (stereo not drawn),"inconclusive [activator, single point]",–
O=C(CSc1ccccn1)c1ccc(F)cc1,"inconclusive [activator, partial curve, poor fit]",–
N#C/C(=C\c1cc(Cl)c(OCc2ccc(Cl)cc2)c(Cl)c1)C(N)=O,"inconclusive [activator, partial curve, poor fit]",–
c1ccc2sc(Nc3nc4cc5c(cc4s3)OCO5)nc2c1,"inconclusive [activator, partial curve, poor fit]",–
CC(C)Nc1nc(NC(N)=S)nc(NC(C)(C)C)n1,–,inactive: -2.79%
Cc1ccc2c3c([nH]c2c1C)-c1nonc1CC3,"inconclusive [activator, partial curve, poor fit]",–
O=C(O)c1ccc(Nc2ccc(F)c(F)c2)c([N+](=O)[O-])c1,"inconclusive [activator, partial curve, poor fit]",–
CCOC(=O)C1CCN(C(=O)C2CCN(S(=O)(=O)c3cccc4nsnc34)CC2)CC1,–,inactive: 9.82%
CC(C)CN1CCC(=O)N([C@H](COc2ccccc2)Cc2ccccc2)CC1,–,inactive: 3.47%
CC(=O)c1cccc(NC(=S)NC(=O)CC(C)C)c1,"inconclusive [activator, single point]",–
O=C(N/N=C/c1cn(CCOc2ccccc2)c2ccccc12)c1ccncc1,"inconclusive [activator, single point]",–
COc1ccccc1N1CCN(C2=Nc3cccc4cccc2c34)CC1,"inconclusive [activator, partial curve, poor fit]",–
Cc1cccc(C)c1N=Nc1c(C)cc(O)cc1C,"inconclusive [activator, single point]",–
O=C(COC(=O)c1ccccc1Nc1ccc(SC(F)F)cc1)NC1CC1,"inconclusive [activator, partial curve, poor fit]",–
O=[N+]([O-])c1ccc(Cl)c(S(=O)(=O)Nc2cccc(-c3ccc(N4CCOCC4)nn3)c2)c1,–,inactive: 26.3%
CC(C)c1ccc(NC(=O)C2CCN(c3ncnc4c3nc3n4CCCCC3)CC2)cc1,–,inactive: -1.19%
COc1ccc(C(CC(=O)Nc2nccs2)C(C)C)cc1 (stereo not drawn),–,inactive: -1.92%
CCOc1ncccc1C(=O)OCC(=O)Nc1cccc(S(N)(=O)=O)c1,"inconclusive [activator, single point]",–
CCOCCc1nnc(NC(=O)c2cccs2)s1,"inconclusive [activator, partial curve, poor fit]",–

SMILES,Potency,"activity change, positive = activation"
Fc1ccccc1CNC(=S)Nc1ccc(Cl)cc1,"inconclusive [activator, single point]",–
Cc1c(C(=O)Nc2ccccc2)oc2c1C(=O)CC(C)(C)C2,"inconclusive [activator, partial curve, poor fit]",–
COc1ccc(Cc2noc(-c3ccc(C)cc3)n2)cc1,"inconclusive [activator, partial curve, poor fit]",–
O=C(N/N=C/c1ccccc1OC(=O)c1ccc2c(c1)OCO2)c1cccc(F)c1,"inconclusive [activator, partial curve, poor fit]",–
Cc1nc(/C(N)=N/OC(=O)c2ccccc2Cl)c(C(F)(F)F)o1,"inconclusive [activator, full curve, poor fit]",–
Cc1cccc(Nc2ncnc3nc[nH]c23)c1,"inconclusive [activator, full curve, poor fit]",–
COc1ccc(S(=O)(=O)NCC2CCC(C(=O)N3CCC4(CC3)OCCO4)CC2)cc1 (stereo not drawn),–,inactive: -7.5%
CCC(NS(=O)(=O)c1ccc(C)cc1)C(=O)Nc1ccc(NC(C)=O)cc1 (stereo not drawn),–,inactive: 4.46%
Cc1ccc(F)cc1NC(=O)c1ccc2c(c1)OCO2,"inconclusive [activator, partial curve, poor fit]",–
COc1cc(C)c(NC(=S)Nc2cccc(Cl)c2C)cc1OC,–,inactive: -12.3%
O=C(CCN1C(=O)c2ccccc2C1=O)NC(=S)Nc1ccccc1Cl,–,inactive: -0.0205%
C/C(=N\NC(=O)c1cc2ccccc2cc1O)c1ccc(C)o1,–,inactive: 17.4%
CC(Sc1nnc(NC2CCCCC2)s1)C(=O)Nc1ccc2c(c1)C(=O)c1ccccc1C2=O (stereo not drawn),"inconclusive [activator, partial curve, poor fit]",–
O=C(O)c1cccc(-n2sc3ccccc3c2=O)c1,"inconclusive [activator, partial curve, poor fit]",–
Clc1ccc(-c2nnc(-c3ccc(Br)o3)o2)c(Cl)c1,"inconclusive [activator, partial curve, poor fit]",–
CC(=O)Nc1ccc(C(=O)OCC(=O)Nc2ccccc2F)cc1,–,inactive: -0.0875%
CCCC(=O)Nc1nc2ccc(OC)cc2s1,"inconclusive [activator, partial curve, poor fit]",–
CS(=O)(=O)c1ccc2nc(NC(=O)CCC(=O)c3cccs3)sc2c1,"inconclusive [activator, partial curve, poor fit]",–
C#CCNC(=O)C1=C[C@H](C(C)(C)C)C[C@H](OCc2ccc(CO)cc2)O1,–,inactive: 1.85%
O=[N+]([O-])c1ccc(CSC2=NCCN2)cc1,"inconclusive [activator, partial curve, poor fit]",–
COCCCNC(=S)NC(=O)c1ccc(C)cc1,"inconclusive [activator, full curve, poor fit]",–
COc1cccc(-n2cnnc2SC(C)C(=O)NC2CCCC2)c1 (stereo not drawn),"inconclusive [activator, partial curve, poor fit]",–
